Source: the supplement of paper PMC11417369
± gives the standard deviation of the averaged measurements. The list shows a part of the results.

System: PfAP2-I AP2 domain 3 (GST-tagged)
Assay: gcPBM binding intensity (ln(normalized median fluorescence intensity)); higher = stronger DNA binding
Outline: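 GST-tagged P. falciparum DNA-binding domains produced in E. coli were incubated for 1 h on an Agilent 4 × 180k array of primer-extended double-stranded 36-bp intergenic genomic probes with negative controls. Binding intensity is the highest Masliner-normalised natural-log median intensity across replicate spots of either probe orientation, with bound protein detected by Alexa488 anti-GST antibody at 488 nm.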

Sequence | gcPBM binding intensity (ln)
TTGAACCTGATAAATACACACAATATAGATTTTTTT [CACACA_site7091] | 7.46 ± 0.66
AATTATACTCACGTTACACACACACTATATATATAT [CACACA_site9375] | 9.32 ± 0.16
AGATATATTTTTTAAATTTAAAAATTATAAAATTTA [CACACA_negctrl_site533] | 7.52 ± 0.35
AAATATATCTTCTTTGCACACTTAAAGGGAAGTGAT [CACACA_site343] | 9.15 ± 0.085
ACAATAATTTCCATCACACATATATTTATATATTAC [CACACA_site6003] | 7.87 ± 0.71
TTGCATCTACATTTATGTACATATCTTATGATAAAT [XGTACX_site2146] | 7.79 ± 0.56
ATACATATTCTTATTTGTACTTATTATAAAATGGTC [XGTACX_site6584] | 7.86 ± 0.21
TAACTGATATATAAAACACACATCATAAAAATATAA [CACACA_site6499] | 7.51 ± 0.47
TATATATGTATATATTTTATAAGTATGCAAGAAAAT [TGCATGCA_negctrl_site486] | 10.4 ± 0.12
ATATTGGAATAAATTTGTACATATATATATTATTCA [XGTACX_site916] | 7.63 ± 0.47
AAAATTTATAAAAGCACACAAAATAAAAAAAAATGA [CACACA_site1491] | 8.45 ± 0.27
TGTACGAGTCGTAGAGTGCAGTCTGGAGAAGAGTAC [GTGCAC_site9684] | 9.32 ± 0.25
TTTTGTTATATACAATAGATCAGAAGAAATGAAGTT [CACACA_negctrl_site1579] | 8.11 ± 0.5
TTATAATATGTATACACACACATATATAAATATATA [CACACA_site2326] | 7.77 ± 0.38
CAATGTTAACATATTACACACATATGTATATAGAAT [CACACA_site2732] | 7.95 ± 0.61
CTTACGTATTAAGTGTGTCCGTAGTGTTCATAGTTC [XGTACX_site8913] | 7.81 ± 0.51
TTTCAATAATAAAAAACACACACAAAAAAAAATAAT [CACACA_site8905] | 7.97 ± 0.5
AAAAATATAAACACCAGTACACAAACCTATAATGGA [XGTACX_site3846] | 7.83 ± 0.63
AAAGTAAATTTAAGCACACACAACGAATTTTTATAC [CACACA_site1959] | 8.71 ± 0.16
AATATATGGTTTCATGATATTAAATACAATTTAATG [CACACA_negctrl_site1503] | 7.38 ± 0.33
CTATAATTATGATGAAGTACATATGAGTTCAAAAAA [XGTACX_site3070] | 8.04 ± 0.41
ATATATATATGTATATGTACTTATATTATTGTTTGT [XGTACX_site1466] | 8.96 ± 0.2

Sequence | gcPBM binding intensity (ln)
ACATAATGCTAGACACGTACGTACATCCGTGAGGTT [XGTACX_site4156] | 7.97 ± 0.74
GTAAAAGAACGGCATGCATGAAAAATATTACACATG [TGCATGCA_site143] | 7.93 ± 0.58
TTATTATTATATTCTACATGCAGTTTGTGTAGAACA [TGCATGCA_site455] | 7.81 ± 0.67
TGAACTCAACAAAGGGTGCATAACAAAAATAGACGT | 11.4 ± 0.23
TAAAATAAAAAGTTTACACACATATATAATTTTAAT [CACACA_site662] | 7.55 ± 0.54
GAATTATATAATTAAAGTACATTGTTTATATAATCA [XGTACX_site7246] | 7.48 ± 0.33
AACCATTTTAAATATGCACACAGATGCACTAACACA [CACACA_site8565] | 10.52 ± 0.057
ATTTATATGGTTTGCACACATAACAACTATGGTTAT [CACACA_site3632] | 8.81 ± 0.4
TTTACACGTACGTGTACACACAAAAATATGTTTTTA [CACACA_site995] | 8.21 ± 0.18
GAAAGAAATAAAGGTGGTACATAAATAAAAACTAAG [XGTACX_site4826] | 8.3 ± 0.47
AAATTCCACGGACACACACACATATAAATAAATAAA [CACACA_site4811] | 8.23 ± 0.37
TGTAGTCTGGAGAAAAGTACATAGTATCTGGTAGCT [XGTACX_site2031] | 8 ± 0.67
AACATAAAAAAAATATGTACATATATAATATATATA [XGTACX_site3764] | 8.38 ± 0.43
TAATTTTTCTTTTATTAACACACATATAAATAAATA [CACACA_site8935] | 7.91 ± 0.47
AAAAATAAAAAAAGCACACACATATAAATAAATATA [CACACA_site6968] | 7.75 ± 0.43
TATATGACAAGATAAAGTACAAATTTGTATATATAT [XGTACX_site3027] | 8.54 ± 0.69
ATATATTTATATATTACACACAATATTGTAGACATA [CACACA_site4669] | 7.8 ± 0.41
CCCAATAATTAAACAACACACATATTTATAGGTAAT [CACACA_site7445] | 7.76 ± 0.85
ATATATATACTGTGTACACAAATATATATTATATAT [CACACA_site6104] | 8.61 ± 0.52
GATAATTTATTTTTTCGTACACAAAATATAATATAT [XGTACX_site1470] | 7.99 ± 0.32
TATATATCAAGACACACACACATATATTTATTTATA [CACACA_site7733] | 7.92 ± 0.51
TTTTTTAAAGATTACTCAAAAAAATAAAAAAATAAA [GTGCAC_negctrl_site222] | 7.46 ± 0.45

Sequence | gcPBM binding intensity (ln)
TCGTGAGAAAATATTACACACATTTACTATAGTATC [CACACA_site3444] | 7.62 ± 0.53
TGAGTTCAACAAAGACGTACAAAACCAAAAATATAA [XGTACX_site8931] | 7.92 ± 0.64
TTTTTTTTTTTTTTTTGATACATTAACCTACAATGG [GTGCAC_negctrl_site625] | 8.02 ± 0.35
ATTATAAACCATAATTAACACACAAAATAAGTTACA [CACACA_site9057] | 7.74 ± 0.56
AAAAAAAAAGAAAAATGTACATACATAAATATATAT [XGTACX_site5664] | 7.77 ± 0.68
AAAAAAAAAAAAAAAAGTACACAAATAGATTTATAT [XGTACX_site3727] | 8.58 ± 0.26
ATTCTATTTTTTATAAAACCATGTCATCAACATAGG [CACACA_negctrl_site237] | 7.64 ± 0.52
TCCTTTCAACCATATATAATGACATGTACTCAAAAA [GTGCAC_negctrl_site417] | 8.08 ± 0.34
CATCCATATAAAATATGTACATATATATATATATAT [XGTACX_site5859] | 9.23 ± 0.35
TATTTTAGTAAAGGTGGTACTTTTAAGTTCATGTAT [XGTACX_site1854] | 8.02 ± 0.5
AATATGAATATCTATACACACACATATATATACACA [CACACA_site8459] | 7.79 ± 0.5
ATTTGTGACCACACAAATAAATAAATAAAAAAAAAA [TGCATGCA_negctrl_site328] | 8.03 ± 0.35
ATATATTTATATTTGTGTACATATTTATTATATTTA [XGTACX_site404] | 7.79 ± 0.61
TAATAATAGAAACACACACACATTTTTAATAATACA [CACACA_site1216] | 7.81 ± 0.54
AAGAAGAAAAACCATTGTACGAACTAACATATATAA [XGTACX_site3226] | 7.82 ± 0.67
GGTATACATAATACTTGTACTAGGCAACAATAAGAT [XGTACX_site1437] | 8.1 ± 0.64
TGTTAAAAGAAAAAAAGTACAAAAAATTATACATTT [XGTACX_site467] | 7.76 ± 0.36
TATATTTTATATTAGTGTACAAATTTCATTTTTCAT [XGTACX_site2204] | 7.57 ± 0.46
AATATATATAAAAAAGTGCATTAGGATAACCATATA [GTGCAC_site9590] | 11.2 ± 0.57
TATATATATATATTCACACATATAGTATTGTATTTA [CACACA_site5147] | 9.22 ± 0.31
AAATTTGGATGACTCAATAAATTATAATATATATAT [CACACA_negctrl_site298] | 8.895 ± 0.035
ATATTCTTTATATGCATACACACCTAATATAGGGAC [CACACA_site1533] | 8.16 ± 0.61

Sequence | gcPBM binding intensity (ln)
AATCATTTGTTATAAGTCTAAAATTATTAGAATATT [XGTACX_negctrl_site151] | 7.33 ± 0.7
TTCAATTTTTTAAAGCGTACATATAAAAGTTATATG [XGTACX_site731] | 7.86 ± 0.18
ATTATTACATATAATGCATGTGCATATATTTTTATA [TGCATGCA_site701] | 9.57 ± 0.43
TTTTTTTAAATATATAAGATAAATTTATAAATAAAT [XGTACX_negctrl_site282] | 7.16 ± 0.44
AAAAAAAATTTCTCAAGTACACAATTTTTTTTTGTT [XGTACX_site5874] | 7.73 ± 0.58
TTTTATCATCACATTTGTCAAAAAAAAAAAAAAAAA [CACACA_negctrl_site1296] | 8.23 ± 1.1
TTATAATAAAAAAATTCCTAAGTCCGTATATATTAT [CACACA_negctrl_site1698] | 7.37 ± 0.45
TTTTATTTTTATAACAGTACATAAGTAATTGTTCAA [XGTACX_site7574] | 7.63 ± 0.58
TTATGTTCATTATATGCACACATATATATAAATGTA [CACACA_site8947] | 9.11 ± 0.071
GATTTTATAATTTCTACACACATATAAGAATATTCA [CACACA_site2802] | 7.68 ± 0.84
ATATCAAACTAGAATGTGCGCATGCATTCAAGTTTT | 7.93 ± 0.88
ATATTTTCCCTTTATAGGAGCACAAAAATTAAATGT [CACACA_negctrl_site1114] | 8.18 ± 0.39
CAGATAAGATTTTGTGGTACTATTTATTAAATTAGA [XGTACX_site2644] | 7.55 ± 0.3
GCTAATAATAAAAGCATAATGAACAAACACCCAGTA [CACACA_negctrl_site806] | 8.28 ± 0.46
TTATATAACACGGGGAGGACACAAGAAATAAAGAGC [XGTACX_site2148] | 9.02 ± 0.23
TTTTTCTGTTTTTATAGCCTTCTCATAATACATAAA [TGCATGCA_negctrl_site355] | 7.9 ± 0.71
ATTCGGATCTATAAGTGTACACAATCTAGCGAAAAG [XGTACX_site3088] | 7.95 ± 0.57
TATACGCAGAAACACACACACAAAAAAAAAAAAAAA [CACACA_site427] | 8.12 ± 0.66
TATAATAAATCGAACTGTACATATATATATATATAT [XGTACX_site7097] | 9.3 ± 0.49
ATTTTTTTTGCTAAGTGTACACAAATGTTTATTAAT [XGTACX_site7440] | 8.48 ± 0.34
TTTATTCAAATATAATGTACTTTCTACAAATTCAAT [XGTACX_site8119] | 7.65 ± 0.41
CATATATAAATATATACACACATATATATATATATA [CACACA_site1365] | 9.26 ± 0.48
